Assay results published in the supplement of paper PMC11417369.
± gives the standard deviation of the averaged measurements. The list shows a part of the results.

These sequences were tested on PfAP2-EXP AP2 domain (GST-tagged) (assay: gcPBM binding intensity (ln(normalized median fluorescence intensity)); higher = stronger DNA binding).
Procedure, shortened: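 The binding buffer was 1× PBS containing 1% milk, 0.2 mg/ml BSA, 0.5% salmon testes DNA and 0.03% Triton X-100. In it, GST-tagged P. falciparum DNA-binding domains expressed in E. coli were applied for 1 h to an Agilent 4 × 180k array of primer-extended double-stranded 36-bp intergenic genomic probes plus negative controls. Binding intensity, read with Alexa488 anti-GST antibody and a 488 nm scan, is the highest Masliner-normalised natural-log median intensity across replicate spots of either probe orientation.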

| Sequence | gcPBM binding intensity (ln) |
| --- | --- |
| ATCTATTCACACTTTTAAAAATTAAATATATTATAT [TGCATGCA_negctrl_site610] | 8.75 ± 0.44 |
| TAATTTTTTTTTTATAGTACACATATTAAAGAATTA [XGTACX_site2485] | 8.16 ± 0.36 |
| AATAAAAAAAAAATATATATTTTTTTTTTTTTTTTT [CACACA_negctrl_site54] | 8.54 ± 0.19 |
| TATATATATATATGTAGTACTTTACAAAATAATTCG [XGTACX_site5322] | 9.98 ± 0.49 |
| GCATAACCTTTATATTGTACATATACCTTTATTGTT [XGTACX_site6046] | 9.16 ± 0.45 |
| AATAAATTCATGATAGTGCAAAAATTATTTTTGTTA | 8.52 ± 0.19 |
| TAGTTATCACATTGCACACACATTTCCTTTTACATT [CACACA_site7589] | 9.06 ± 0.41 |
| TTATTTATACGCTATGAGTTTGATACAAACAATTAA [XGTACX_negctrl_site456] | 8.85 ± 0.52 |
| TTTTTACGGAATTAGAGAAAAGAAATAAAAAAAAAA [XGTACX_negctrl_site436] | 8.38 ± 0.46 |
| TTTATATTTATGTAGGTGCATTTGTTTACAACATAT [GTGCAC_site9511] | 9.04 ± 0.092 |
| TATTCAAAGAAAAACTGTACGTGTAGCCTACATCCT [XGTACX_site7707] | 8.46 ± 0.34 |
| TTTTTTGTTATTTTCCGTTTTTTTCCATTATAATTT [GTGCAC_negctrl_site461] | 8.95 ± 0.59 |
| ACGTTAAAAACAAGTTGTACACAATAAATTATTCTT [XGTACX_site6321] | 8.82 ± 0.54 |
| ATTATCCATCAAAAGGTGCAAATTTTTAATTATAAA [GTGCAC_site9932] | 8.45 ± 0.13 |
| AAAGATGATAAAATATGTACACACAGTTTATACATT [XGTACX_site8703] | 8.24 ± 0.092 |
| TGAGTCTTTTACATTGCACACACATTTCTTTCCTTT [CACACA_site8978] | 9.04 ± 0.47 |
| ATATCAATATAAAGTACACACTATAGTATGTATTAT [CACACA_site5286] | 8.55 ± 0.45 |
| ATTATTAATAATTGTGTGCACAAATATTTATATGCT | 8.86 ± 0.092 |
| ATATTGTATTATCTTTATGTACCAAAAAAAAAAAAA [CACACA_negctrl_site1036] | 8.36 ± 0.52 |
| ATGAACATACAATATACACACATATAGATTTATATT [CACACA_site6524] | 8.48 ± 0.52 |
| TCATTATTAATATGTAGTACATTATATGATATGTAT [XGTACX_site8978] | 8.45 ± 0.24 |
| TTCTTTTTAAATTACACACACATATATATCTGTATA [CACACA_site5863] | 8.78 ± 0.44 |

| Sequence | gcPBM binding intensity (ln) |
| --- | --- |
| TAAAGGATTTTCGAAGCATGCCACCTGTGACATACT [TGCATGCA_site130] | 8.32 ± 0.49 |
| TTTATACAATTAGACACACACAAAAAGTATATATAT [CACACA_site1082] | 8.76 ± 0.44 |
| ATGGGTATATTTCCACGTACAAAAAATCCGAATTGC [XGTACX_site1490] | 8.6 ± 0.38 |
| ATATAATTACATTGATGTACACGAAATGATTAACAT [XGTACX_site5183] | 8.67 ± 0.34 |
| CAAATACCCGGACACACACACACAAAAAAAAAAAAA [CACACA_site4441] | 8.38 ± 0.49 |
| CATTCAAAGAAAAACTGTACGTGTAGCAAACGTCAT [XGTACX_site2576] | 8.42 ± 0.73 |
| GTATATATTAAAAAAAAAAAAAAAAAATTAAAATTA [CACACA_negctrl_site572] | 7.95 ± 0.45 |
| AAAAAAAAAATTCATTGTACATATATATATATATAT [XGTACX_site8346] | 10.2 ± 0.22 |
| TAGACTGGACATTAATGTACATAAATATATATGTAT [XGTACX_site7726] | 8.71 ± 0.43 |
| TATAAGAAAAATAACACACACATAAACATATATACA [CACACA_site2785] | 8.98 ± 0.41 |
| GGAATATTAATAAGAGTGCATTTTGTATTCAATATG | 8.61 ± 0.014 |
| TGGTTATTTATCTTTATTATAAATATTTACAAATAA [CACACA_negctrl_site1773] | 8.4 ± 0.35 |
| ATATATATATATATATGTACTTATTTATATATTTAT [XGTACX_site7811] | 10.1 ± 0.25 |
| ATAAGAAGAAGAAAAACACACATATGTAGATATATA [CACACA_site7469] | 9 ± 0.58 |
| AAATAATATTTTACATGTACATAATAATTATTGGAT [XGTACX_site2783] | 8.66 ± 0.28 |
| ATGCTTCCTTAGGAATGTACACACATATATAATATG [XGTACX_site873] | 8.69 ± 0.35 |
| ATAAAAATAAAAAACTGTACATACAAGATGTTACAG [XGTACX_site6690] | 8.29 ± 0.23 |
| TAAATATTTAAATATTGTACTAGGTATAATTGAATA [XGTACX_site3604] | 8.38 ± 0.47 |
| TTATTGTACTTGCTCGCATGCAATAAAAATATATTA [TGCATGCA_site580] | 9.38 ± 0.23 |
| GGCATGACTATCTGCACACATAAAAATAAGAAATAC [CACACA_site841] | 8.87 ± 0.4 |
| GATTTATACAAATATGTACACACTAATTATATATTA [CACACA_site8045] | 8.73 ± 0.28 |
| ATAAACAGAAAAAAAAAAAAAAAAAAAAAAAAAAAA [CACACA_negctrl_site143] | 7.98 ± 0.4 |

| Sequence | gcPBM binding intensity (ln) |
| --- | --- |
| TTTTTTTTCTCACAAAAAATAATTAACAAAAAGGAA [XGTACX_negctrl_site154] | 8.55 ± 0.27 |
| TTTATATGGATTTTTTTTTAATATTTCTTTTAATTT [TGCATGCA_negctrl_site361] | 8.21 ± 0.4 |
| ATAAAAAAAAAAAATACACACATATATTTATTTATA [CACACA_site6903] | 7.96 ± 0.42 |
| ATATGCTATTTACTAGTGCAAAATATTTAAAATATG [GTGCAC_site9517] | 8.76 ± 0.16 |
| TAAAAAAAAAAAAAAAGTACAAAAAAAATATTTTTT [XGTACX_site7941] | 8.48 ± 0.4 |
| GTTGCACAATGTTACACACACAATATAGATCGTTAA [CACACA_site6717] | 8.62 ± 0.42 |
| TTAATATAAGCAAATACACACACACCGATATATATA [CACACA_site9269] | 8.91 ± 0.36 |
| TATCATATTTTTATATGTACATAACATAAAAAAAAA [XGTACX_site2152] | 8.29 ± 0.43 |
| AACAGACAAAGACACACACACATACATACATACATA [CACACA_site6351] | 8.72 ± 0.38 |
| TGATTTGTGCCGATTTGTACACATTTATATATATAT [XGTACX_site2154] | 9.58 ± 0.17 |
| ATTTTTTCATATTCTACACACGTGAACAAATGAGTC [CACACA_site5635] | 8.74 ± 0.42 |
| TACATACATACATACACACACATATATATATATATA [CACACA_site1944] | 10.2 ± 0.29 |
| TCACATATATATTAATGTACATATATTTTTTATGTA [XGTACX_site5125] | 8.41 ± 0.35 |
| GATATATCCTATGTTATTTTTATGGTGTAATTTAGT [XGTACX_negctrl_site112] | 8.81 ± 0.29 |
| CAATGTTAACATATTACACACATATGTATATATAAT [CACACA_site8878] | 8.58 ± 0.55 |
| GACAACTCTTTTCATACACACAAAAAAAAAAAAATA [CACACA_site2361] | 8.33 ± 0.52 |
| AGAAAGAAAATATATACACACAAAAAAAAATATATA [CACACA_site1412] | 8.7 ± 0.47 |
| TTTTTTTTATGTATCACACATAATTTTTTATTATGA [CACACA_site5534] | 8.51 ± 0.35 |
| ATAATAACAAGGCGCTGTACTGTACCGTTTTTCATA [XGTACX_site6135] | 8.94 ± 0.4 |
| CATCCACAAATATGTACACACATATATAAATATGTA [CACACA_site7407] | 8.45 ± 0.35 |
| TGCTCTAATTTATATACACACAAATATGTACACATA [CACACA_site7845] | 8.61 ± 0.4 |
| TAATTTTTTTAAGAGAGTACATGACTCAACAGTTTA [XGTACX_site3103] | 8.26 ± 0.44 |

| Sequence | gcPBM binding intensity (ln) |
| --- | --- |
| TTTCATAAATAATAAAATAAAATATGAAGCAAAAGG [CACACA_negctrl_site1767] | 8.7 ± 0.42 |
| TTTTTTTTTTTTTGGAGTACATGTTTATAACATAAT [XGTACX_site1799] | 8.4 ± 0.4 |
| TTATATCCAACTTGAAAAAAGGTATATGTTTATATA [CACACA_negctrl_site1746] | 8.21 ± 0.41 |
| GAAATATTACAAAGTACATGCAACGAAAATTTCAGT [TGCATGCA_site608] | 9.12 ± 0.34 |
| GATAATACATAAATTTATAAGTGGAAGAATAAATAA [CACACA_negctrl_site698] | 8.99 ± 0.37 |
| ACAAACAAATAAATATGTACGAATAAATAAAATTTT [XGTACX_site4664] | 8.58 ± 0.31 |
| TTTTTTTTCAAAAATACAAAAAAAAAAGAAAAAAAC [CACACA_negctrl_site625] | 8.72 ± 0.44 |
| CTTTTAGAATAATCAGTGCAAAAAAAAAAAAAAAAA | 8.325 ± 0.049 |
| ATGTGTTTCTTCAATTGTACTAAAAGGTATATATTG [XGTACX_site4608] | 8.84 ± 0.47 |
| TTATTCTAAAAATATACACACAACAACAAACAAACA [CACACA_site1543] | 9.04 ± 0.39 |
| ATTATTTAAATTTAACGTACGGAATAAGACATAGAT [XGTACX_site8622] | 9.26 ± 0.49 |
| ATACTATAATATAAAACACACATATGTACCTTCTAA [CACACA_site7323] | 8.5 ± 0.42 |
| TATATAATATATAAATGTACTTTTGTCTTATATGAA [XGTACX_site7211] | 8.35 ± 0.43 |
| TAGTAACTTGTATTCACACAAATTATATTATATTAC [CACACA_site5041] | 8.58 ± 0.4 |
| AATCATTAAAGCATAATGTTTATGATCAATATGAAA [CACACA_negctrl_site887] | 8.27 ± 0.33 |
| TTTTTTTTTTTTTTTTTTTTACAGAAAAATATTAAA [CACACA_negctrl_site128] | 8.02 ± 0.47 |
| TTCAGGTAATAACATTGTACATGTGTATCATAATTA [XGTACX_site6740] | 8.55 ± 0.35 |
| TACACCCACATATATATACACACTTTTATTTAAATA [CACACA_site1596] | 8.7 ± 0.38 |
| AATATATATATATGTGCACACATATATAATATGTAT [CACACA_site716] | 8.53 ± 0.28 |
| AAAAAAAATAATGTTGCACACAACAACAAACAAAAA [CACACA_site3290] | 8.57 ± 0.54 |
| CAATATGGAAAATAAAGTACGCACACAAAAATTCTC [XGTACX_site4793] | 8.94 ± 0.4 |
| TAGATAAAATGAACATGTACTCATCTTAATATATAT [XGTACX_site34] | 8.38 ± 0.31 |
